The list shows a part of the results.
Key:
Assay in all cases: glycan array binding signal (z-score within array); higher = stronger binding
Settings in all cases: glycan notation: IUPAC condensed, linker removed
[1] = molecular target: Fuc(a1-2)Gal(b1-4)GlcNAc(b1-3)Gal(b1-4)GlcNAc(b1-3)Gal(b1-4)GlcNAc
Summary of the method: (§1)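 The Consortium for Functional Glycomics database supplied 3228 glycan arrays, of which those lacking an available protein sequence were dropped. The binding signal, a within-array Z-score, was averaged across arrays of the same protein sequence and across linkers. Negative scores can be read as non-binding.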

[2] = molecular target: Fuc(a1-2)Gal(b1-4)GlcNAc(b1-3)GalNAc
Summary of the method: as §1

[3] = molecular target: Fuc(a1-2)Gal(b1-4)GlcNAc(b1-3)[Fuc(a1-2)Gal(b1-4)GlcNAc(b1-6)]GalNAc
Summary of the method: as §1

[4] = molecular target: Fuc(a1-2)Gal(b1-4)GlcNAc(b1-3)[Fuc(a1-3)[Gal(b1-4)]GlcNAc(b1-6)]Gal(b1-4)Glc
Summary of the method: as §1

[5] = molecular target: Fuc(a1-2)Gal(b1-4)GlcNAc(b1-6)GalNAc
Summary of the method: as §1

[6] = molecular target: Fuc(a1-2)Gal(b1-4)GlcNAc6S
Summary of the method: as §1

[7] = molecular target: Fuc(a1-2)Gal(b1-4)[Fuc(a1-3)]GlcNAc
Summary of the method: as §1

[8] = molecular target: Fuc(a1-2)Gal(b1-4)[Fuc(a1-3)]GlcNAc(b1-2)Man(a1-3)[Fuc(a1-2)Gal(b1-4)[Fuc(a1-3)]GlcNAc(b1-2)Man(a1-6)]Man(b1-4)GlcNAc(b1-4)[Fuc(a1-6)]GlcNAc
Summary of the method: as §1

[9] = molecular target: Fuc(a1-2)Gal(b1-4)[Fuc(a1-3)]GlcNAc(b1-2)[Fuc(a1-2)Gal(b1-4)[Fuc(a1-3)]GlcNAc(b1-4)]Man(a1-3)[Fuc(a1-2)Gal(b1-4)[Fuc(a1-3)]GlcNAc(b1-2)Man(a1-6)]Man(b1-4)GlcNAc(b1-4)GlcNAc
Summary of the method: as §1

[10] = molecular target: Fuc(a1-2)Gal(b1-4)[Fuc(a1-3)]GlcNAc(b1-3)Gal(b1-4)[Fuc(a1-3)]GlcNAc
Summary of the method: as §1

[11] = molecular target: Fuc(a1-2)Gal(b1-4)[Fuc(a1-3)]GlcNAc(b1-3)Gal(b1-4)[Fuc(a1-3)]GlcNAc(b1-3)Gal(b1-4)[Fuc(a1-3)]GlcNAc
Summary of the method: as §1

[12] = molecular target: Fuc(a1-2)Gal(b1-4)[Fuc(a1-3)]GlcNAc(b1-3)GalNAc
Summary of the method: as §1

[13] = molecular target: Fuc(a1-2)Gal(b1-4)[Fuc(a1-3)]GlcNAc(b1-3)[Neu5Ac(a2-6)Gal(b1-4)GlcNAc(b1-6)]Gal(b1-4)Glc
Summary of the method: as §1

[14] = molecular target: Fuc(a1-2)Gal3S(b1-4)GlcNAc
Summary of the method: as §1

[15] = molecular target: Fuc(a1-2)Gal6S(b1-3)GlcNAc
Summary of the method: as §1

[16] = molecular target: Fuc(a1-2)Gal6S(b1-3)GlcNAc6S
Summary of the method: as §1

Fuc(a1-2)Gal6S(b1-4)Glc = molecular target: Fuc(a1-2)Gal6S(b1-4)Glc
Summary of the method: as §1

[17] = molecular target: Fuc(a1-2)Gal6S(b1-4)Glc6S
Summary of the method: as §1

Fuc(a1-2)[Gal(a1-3)]Gal = molecular target: Fuc(a1-2)[Gal(a1-3)]Gal
Summary of the method: as §1

[18] = molecular target: Fuc(a1-2)[Gal(a1-3)]Gal(b1-3)GalNAc
Summary of the method: as §1

[19] = molecular target: Fuc(a1-2)[Gal(a1-3)]Gal(b1-3)GalNAc(b1-3)Gal(a1-4)Gal(b1-4)Glc
Summary of the method: as §1

[20] = molecular target: Fuc(a1-2)[Gal(a1-3)]Gal(b1-3)GlcNAc
Summary of the method: as §1

[21] = molecular target: Fuc(a1-2)[Gal(a1-3)]Gal(b1-3)GlcNAc(b1-2)Man(a1-3)[Fuc(a1-2)[Gal(a1-3)]Gal(b1-3)GlcNAc(b1-2)Man(a1-6)]Man(b1-4)GlcNAc(b1-4)GlcNAc
Summary of the method: as §1

[22] = molecular target: Fuc(a1-2)[Gal(a1-3)]Gal(b1-3)GlcNAc(b1-2)Man(a1-3)[Fuc(a1-2)[Gal(a1-3)]Gal(b1-3)GlcNAc(b1-2)Man(a1-6)]Man(b1-4)GlcNAc(b1-4)[Fuc(a1-6)]GlcNAc
Summary of the method: as §1

[23] = molecular target: Fuc(a1-2)[Gal(a1-3)]Gal(b1-3)GlcNAc(b1-3)GalNAc
Summary of the method: as §1

[24] = molecular target: Fuc(a1-2)[Gal(a1-3)]Gal(b1-3)GlcNAc(b1-6)GalNAc
Summary of the method: as §1

[25] = molecular target: Fuc(a1-2)[Gal(a1-3)]Gal(b1-4)Glc
Summary of the method: as §1

[26] = molecular target: Fuc(a1-2)[Gal(a1-3)]Gal(b1-4)GlcNAc
Summary of the method: as §1

[27] = molecular target: Fuc(a1-2)[Gal(a1-3)]Gal(b1-4)GlcNAc(b1-2)Man
Summary of the method: as §1

[28] = molecular target: Fuc(a1-2)[Gal(a1-3)]Gal(b1-4)GlcNAc(b1-2)Man(a1-3)[Fuc(a1-2)[Gal(a1-3)]Gal(b1-4)GlcNAc(b1-2)Man(a1-6)]Man(b1-4)GlcNAc(b1-4)GlcNAc
Summary of the method: as §1

B1: Clone730PsrP (Streptococcus pneumoniae) (protein)
chain: MDHHHHHHHHHHASENLYFQGAMVVGSQTAAATEATAKKVEEDRKKPASDYVASVTNVNLQSYAKRRKRSVDSIEQLLASIKNAAVFSGNTIVNGAPAINASLNIAKSETKVYTGEGVDSVYRVPIYYKLKVTNDGSKLTFTYTVTYVNPKTNDLGNISSMRPGYSIYNSGTSTQTMLTLGSDLGKPSGVKNYITDKNGRQVLSYNTSTMTTQGSGYTWGNGAQMNGFFAKKGYGLTSSWTVPITGTDTSFTFTPYAARTDRIGINYFNGGGKVVESSTT
glycan array binding signal (z-score) [1]: -0.43 | glycan array binding signal (z-score) [2]: 0.263 | glycan array binding signal (z-score) [3]: -0.13 | glycan array binding signal (z-score) [4]: -0.648 | glycan array binding signal (z-score) [5]: 1.79 | glycan array binding signal (z-score) [6]: -0.272 | glycan array binding signal (z-score) [7]: -0.389 | glycan array binding signal (z-score) [8]: -0.276 | glycan array binding signal (z-score) [9]: -0.022 | glycan array binding signal (z-score) [10]: -0.547 | glycan array binding signal (z-score) [11]: 0.285 | glycan array binding signal (z-score) [12]: -0.079 | glycan array binding signal (z-score) [13]: 0.031 | glycan array binding signal (z-score) [14]: -0.452 | glycan array binding signal (z-score) [15]: 0.156 | glycan array binding signal (z-score) [16]: 1.57 | glycan array binding signal (z-score) (Fuc(a1-2)Gal6S(b1-4)Glc): -0.11 | glycan array binding signal (z-score) [17]: -0.405 | glycan array binding signal (z-score) (Fuc(a1-2)[Gal(a1-3)]Gal): -0.101 | glycan array binding signal (z-score) [18]: 0.717 | glycan array binding signal (z-score) [19]: 0.43 | glycan array binding signal (z-score) [20]: 0.133 | glycan array binding signal (z-score) [21]: -0.478 | glycan array binding signal (z-score) [22]: 0.874 | glycan array binding signal (z-score) [23]: -0.333 | glycan array binding signal (z-score) [24]: 0.086 | glycan array binding signal (z-score) [25]: 0.235 | glycan array binding signal (z-score) [26]: 0.008 | glycan array binding signal (z-score) [27]: 0.272 | glycan array binding signal (z-score) [28]: -0.217
